From the supplement of paper PMC12217912
The list shows a part of the results. Sequences were assembled here from the parent chain. Values near 0.05 are background.

B1: TEV protease; numbered along this chain (parent)
chain: MGESLFKGPRDYNPISSSICHLTNESDGHTTSLYGIGFGPFIITNKHLFRRNNGTLVVQSLHGVFKVKDTTTLQQHLVDGRDMIIIRMPKDFPPFPQKLKFREPQREERICLVTTNFQTKSMSSMVSDTSCTFPSGDGIFWKHWIQTKDGQCGSPLVSTRDGFIVGIHSASNFTNTNNYFTSVPKNFMELLTNQEAQQWVSGWRLNADSVLWGGHKVFMVKPEEPFQPVKEATQL

Variants of: B1
Assay: raw area under fraction-flipped curve 0-4 h after induction (AUC4h, not background-subtracted), DNA-recorder readout of cleavage of the substrate (dimensionless); higher = more cleavage of the substrate by the protease variant
Conditions: temperature: 34 °C; time window: 0-4 h after rhamnose induction
Protocol: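 In vivo DNA recorder in E. coli TOP10(DE3) ΔrhaA at 34 °C. Each TEVp single-site mutant (parent TEVp 0) is paired with a single-site variant of the 7-mer TEVs (canonical ENLYFQ|S). The substrate sits between flexible linkers in a Bxb1-sfGFP-TEVs-SsrA fusion, so cleavage stabilises Bxb1 and speeds flipping of a recombination array, read by NGS. The value is the raw area under the fraction-flipped curve over 0-4 h after rhamnose induction (AUC4h), with ≥20 reads per time point. It is not background-subtracted; inactive controls average about 0.047.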
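Note: Bxb1 expression induced with 0.2% (w/v) L-rhamnose at OD600 near 0.5, cultures sampled hourly, flipped fraction per protease–substrate barcode pair counted by paired-end Illumina sequencing.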

Variant	area with substrate ENLAFQS	area with substrate ENLCFQS	area with substrate ENLDFQS	area with substrate ENLFFQS	area with substrate ENLHFQS	area with substrate ENLKFQS	area with substrate ENLLFQS	area with substrate ENLNFQS	area with substrate ENLPFQS	area with substrate ENLRFQS	area with substrate ENLSFQS	area with substrate ENLWFQS	area with substrate ENLEFQS	area with substrate ENLMFQS	area with substrate ENLGFQS	area with substrate ENLIFQS	area with substrate ENLQFQS	area with substrate ENLVFQS	area with substrate ENLTFQS
S26T	0.043	0.0572	0.0567	0.108	0.0604	0.0729	0.0723	0.0698	0.0476	0.0694	0.0668	0.043							
S26G	0.073			0.0686	0.0523				0.07	0.073			0.048	0.066					
S26A	0.0592	0.0824	0.0689	0.0648	0.0577	0.0705	0.0701	0.0674	0.0771	0.0664	0.0614	0.0626	0.0632		0.0735	0.0612	0.0558	0.0649	
Q59Y	0.106	0.0611	0.0495	0.101	0.0636	0.0868	0.0654	0.0918	0.0466	0.0714	0.0617	0.0572		0.127	0.0703		0.0692	0.084	
G37E	0.0393	0.0552	0.0435	0.0573	0.0692	0.041	0.055	0.0356	0.0485	0.0474	0.0488	0.0573			0.044	0.0511	0.0391	0.0523	0.0538
G37K	0.0396		0.0546	0.0648	0.0601	0.0482	0.0692		0.0551	0.0427	0.0448	0.0581					0.049		0.0066
S17M	0.0694		0.0579	0.09	0.0589	0.0736	0.0777	0.0844	0.0506	0.072	0.0702	0.0586	0.0675		0.0611	0.0777	0.0886	0.0853	
S17V	0.0422		0.0678	0.0721	0.0679	0.0595	0.0627	0.0649	0.0777	0.0748	0.0663	0.0684	0.0595	0.0688		0.0727	0.0364	0.0684	
S17R	0.0785		0.0547	0.0807	0.108	0.0665			0.073	0.0716	0.0852	0.069	0.0631			0.116	0.0522	0.0964	
S17N	0.0583		0.0583	0.0737	0.0721	0.0739	0.0814	0.0568		0.0758	0.0713		0.0458	0.0741	0.0782		0.0679	0.0974	
G54N	0.051		0.0663	0.0673	0.0558	0.0588	0.0469	0.0563	0.0734	0.0511	0.0512		0.0592			0.0614	0.0552	0.067	
G54T	0.0609		0.0799	0.0645	0.0485	0.0628	0.0555	0.0573	0.0624		0.0543	0.0608	0.0545	0.0671		0.0592	0.0551		
